Where “and” joins values, the source holds several entries; their conditions need not be identical. Equal values may be shown once. Screen size: about 410,000 compounds; about 5,000 (1.2%) were called active. The shares of active, inactive and inconclusive entries below differ from those in the screen. The call rests on the fitted dose curve; in most records, active means well fitted inhibition curve with a large enough effect; inconclusive means small, poorly fitted or top-dose-only effect; inactive means no such curve, though single readings can be large or run the other way. Potencies beside an inconclusive call are fits to weak or partial responses and may not hold up.
Test: qHTS for Inhibitors of TGF-b; further: nearly all actives have a fitted effect of over 65% in size
Conditions: HepG2 CAGA-GFP TGF-b/SMAD3 reporter, GFP fluorescence, 18 h, TGF-beta stimulated, 500 pg/mL final; series mostly up to 46.1 µM
In short: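 TGF-beta reporter screen: HEPG2 CAGA-GFP, 1% FBS, 500 pg/mL TGF-beta final, 18 h; per-cell GFP summed per well; curves fitted and categorized by class.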
For CSc1nnc2c(n1)OC(c1cccc(O)c1Cl)Nc1ccccc1-2 (stereo unspecified), the Potency was “inactive”. With Cc1cccc(N=C(NO)c2nonc2N)c1 the Potency was inconclusive: 1 µM [inhibitor, full curve, poor fit]. In the case of CN(C)CC(CCCCC(CN(C)C)C(=O)c1ccccc1)C(=O)c1ccccc1 (stereo unspecified), the Potency is reported as inconclusive: 35.5 µM [inhibitor, single point]. In the case of CC(C(=O)NCc1ccc(Cl)cc1)n1ccc2cc(S(=O)(=O)N3CCCC3)ccc21 (stereo unspecified), the Potency is reported as inconclusive: 14.1 µM [inhibitor, single point]. For Cc1ccccc1-c1nc(CN2CCC(C(=O)NCc3ccco3)CC2)c(C)o1, the Potency was “inactive”. With CC(C)OC(=O)c1c(NC(=O)c2cc3nc(-c4ccccc4)cc(C(F)(F)F)n3n2)sc2c1CCCC2 the Potency was inconclusive: 15.8 µM [inhibitor, single point]. For Cc1cc(N2CCN(C(=O)c3[nH]c(C(F)(F)F)nc3-c3ccccc3)CC2)c2ccccc2n1, the Potency was inconclusive: 28.2 µM [inhibitor, single point]. In the case of COc1ccc(-c2ccc(C(c3c(C)[nH][nH]c3=O)c3c(C)[nH][nH]c3=O)o2)c([N+](=O)[O-])c1, the Potency is reported as inconclusive: 35.5 µM [inhibitor, single point]. In the case of CCC(C)(C)C1CCC(NC(=O)c2ccc(S(=O)(=O)N3CCOCC3)cc2)CC1 (stereo unspecified), the Potency is reported as “inactive”. In the case of NC(=O)N1CCC2(CC1)NC(=O)N(c1ccccc1)N2, the Potency is reported as inconclusive: 2.51 µM [inhibitor, full curve, poor fit]. With COc1ccc(NC(=S)NCCC2=CCCCC2)cc1OC the Potency was “inactive”. In the case of Cc1cc(Nc2cccc(C(F)(F)F)c2)nc2ccc(NC(=O)c3cncc(Br)c3)cc12, the Potency is reported as inconclusive: 22.4 µM [inhibitor, single point]. For Cc1ccc(CN(C(=O)c2ccc([N+](=O)[O-])cc2)c2ccccn2)cc1, the Potency was “inactive”. In the case of CCOc1ccccc1N(CC)C(=O)c1cc2c(=O)n(CC)c3ccccc3c2s1, the Potency is reported as active: 17.8 µM. For O=C(CCN1C(=O)/C(=C\c2ccccc2F)SC1=S)N1CCOCC1, the Potency was “inactive”. With Cc1ccc(C(C)NC(=S)NCc2ccc(F)cc2)c(C)c1 (stereo unspecified) the Potency was inconclusive: 15.8 µM [inhibitor, single point]. With O=[N+]([O-])c1nn(-c2ccc3c(c2)OCCO3)n(O)c1=NCCCO the Potency was “inactive”. With CCCCCC(=O)Cc1cc(O)cc2c1C(=O)Oc1cc(O)c(C(=O)O)c(CCCCC)c1O2 the Potency was inconclusive: 35.5 µM [inhibitor, single point]. With CCC(C)n1c(SCc2ccc([N+](=O)[O-])cc2)nc2ccsc2c1=O (stereo unspecified) the Potency was inconclusive: 22.4 µM [inhibitor, single point]. In the case of O=C(Nc1cccc(-n2cnnn2)c1)c1cc(Cl)ccc1Cl, the Potency is reported as active: 15.8 µM. In the case of CC(C)C1C(=O)N(Cc2cn(Cc3ccco3)nn2)CCS(=O)(=O)N1Cc1ccc(-c2ccc(F)cc2)cc1 (stereo unspecified), the Potency is reported as inconclusive: 28.2 µM [inhibitor, single point]. For Cc1ccc(N2CC(C(=O)NCc3n[nH]c(=O)c4ccccc34)CC2=O)cc1 (stereo unspecified), the Potency was “inactive”. For CC1=C(C(=O)N2CCCCCC2)CC(CC(=O)NC2CCCCC2)C(=O)N1Cc1ccc(C(C)(C)C)cc1 (stereo unspecified), the Potency was inconclusive: 17.8 µM [inhibitor, single point]. For Cc1cc(C)cc(NS(=O)(=O)c2ccc3[nH]cc(C(=O)NCc4ccco4)c(=O)c3c2)c1, the Potency was inconclusive: 10 µM [inhibitor, partial curve] and inconclusive: 1.58 µM [inhibitor, full curve, poor fit]. For Cc1nn(-c2ccccc2)c(C)c1NC(=O)COc1ccc2ccccc2c1, the Potency was inconclusive: 14.1 µM [inhibitor, single point]. For O=C(COc1ccc(Br)cc1Br)NC(=O)NC1CCCC1, the Potency was inconclusive: 0.112 µM [inhibitor, full curve, poor fit]. In the case of CC(=O)c1ccc(NC(=O)CN2C(=O)CCc3cc(S(=O)(=O)N4CCC(C)CC4)ccc32)cc1, the Potency is reported as inconclusive: 3.16 µM [inhibitor, partial curve, poor fit]. In the case of S=C(NCCCc1cnc[nH]1)NCCCN(CCc1ccccc1)c1ccc(Br)cn1, the Potency is reported as inconclusive: 28.2 µM [inhibitor, single point] and inconclusive: 22.4 µM [inhibitor, single point]. With Cn1c(N)c(C(=O)CSc2nnc(Cc3cccs3)n2C2CC2)c(=O)n(C)c1=O the Potency was “inactive”. With CCc1nc2c(OCc3ccc(C#N)cc3)cccn2c1N(C)C(=O)c1cccs1 the Potency was “inactive”. With COc1ccc(/C=C2\CCC(C3CCCC3)C2=O)c(OC)c1OC (stereo unspecified) the Potency was “inactive”. With Cc1ccc(Cn2c(C3CCCN3c3nc(-c4ccc(F)cc4)cs3)nc3cc(Cl)c(Cl)cc32)cc1 (stereo unspecified) the Potency was “inactive”. With CC1(C)Nc2cccc3cccc(c23)N1 the Potency was “inactive”. In the case of COc1ccc2c(c1)CCc1c-2nc2ccccc2c1N1CCOCC1, the Potency is reported as inconclusive: 2.82 µM [inhibitor, full curve, poor fit]. For C/C(=N\N1CCN(Cc2ccccc2Cl)CC1)c1ccc([N+](=O)[O-])cc1, the Potency was inconclusive: 12.6 µM [inhibitor, partial curve, poor fit]. With CCOC(=O)c1cc2c(=O)n3ccccc3nc2n(CC2CCCO2)c1=NC(=O)c1cc(C)cc(C)c1 (stereo unspecified) the Potency was “inactive”. In the case of CCOc1cc(NC(=O)c2ccco2)c(OCC)cc1NC(=O)c1cc(OC)c(OC)c(OC)c1, the Potency is reported as “inactive”. With CC(C)c1ccc(C(=O)Nc2ccc(S(=O)(=O)NC3=NCCCCC3)cc2)cc1 the Potency was “inactive”. In the case of CCc1cccc(C)c1Nc1c(-c2cccc(O)c2)nc2sccn12, the Potency is reported as inconclusive: 35.5 µM [inhibitor, single point]. In the case of Cc1cc2c(c(/C=C/C(=O)c3ccccc3)c1)OC1(C=C2)Oc2ccccc2C(=O)N1C (stereo unspecified), the Potency is reported as inconclusive: 3.16 µM [inhibitor, full curve, poor fit]. In the case of Cc1ccc(CCC(=O)Nc2ccc(S(N)(=O)=O)cc2)o1, the Potency is reported as inconclusive: 0.501 µM [inhibitor, full curve, poor fit]. With COc1ccc(-c2nc(SC(C)C(=O)NC3CC3)n[nH]2)cc1 (stereo unspecified) the Potency was inconclusive: 6.31 µM [inhibitor, single point]. With C[C@H](CO)N1C[C@H](C)[C@@H](CN(C)Cc2ccccc2)Oc2c(NC(=O)C3CCCCC3)cccc2C1=O the Potency was inconclusive: 25.1 µM [inhibitor, partial curve, poor fit]. In the case of CCOC(=O)c1ccc(N=C2SC(C(=O)Nc3ccc(C(=O)O)cc3)CC(=O)N2Cc2cccs2)cc1 (stereo unspecified), the Potency is reported as inconclusive: 35.5 µM [inhibitor, single point]. In the case of Cc1cccc(NC(=O)c2nc[nH]c2C(=O)N[C@@H](C)C(=O)OC(C)(C)C)c1, the Potency is reported as inconclusive: 35.5 µM [inhibitor, single point]. With CC(C)N(C(=O)[C@H]1C[C@H](CC(=O)NCCN2CCOCC2)C(=O)N2CCc3c([nH]c4cc(-c5ccco5)ccc34)[C@]12C)C(C)C the Potency was inconclusive: 35.5 µM [inhibitor, single point]. In the case of CC1(C)Cc2c(c(=S)nc(-c3ccccc3)n2CCN2CCOCC2)CO1, the Potency is reported as inconclusive: 35.5 µM [inhibitor, single point]. In the case of CCc1nnc2n1N(C(C)=O)C(c1ccc(C(C)(C)C)cc1)=C(C(C)=O)S2, the Potency is reported as inconclusive: 35.5 µM [inhibitor, single point]. In the case of CN(CCCC1CCCC1)C(=O)c1cc(COc2ccc(F)c(F)c2)on1, the Potency is reported as inconclusive: 25.1 µM [inhibitor, single point]. In the case of Cc1nnsc1C(=O)Nc1ccc(S(=O)(=O)N2CCC(C)CC2)cc1, the Potency is reported as “inactive”. In the case of Cc1cc(C)nc(N(C#N)CN2C(=O)c3ccccc3S2(=O)=O)n1, the Potency is reported as inconclusive: 35.5 µM [inhibitor, single point]. In the case of Cn1ncc2c1NC(c1ccc(F)cc1)SCC2=O (stereo unspecified), the Potency is reported as “inactive”. In the case of CC(C)c1cnc2c(c1SCC(=O)Nc1cccc([N+](=O)[O-])c1)c(=O)n(C)c(=O)n2C, the Potency is reported as inconclusive: 22.4 µM [inhibitor, partial curve, poor fit]. With CCCCC(CC)Cn1c(Oc2ccccc2)nc2c1c(=O)n(C)c(=O)n2C (stereo unspecified) the Potency was inconclusive: 12.6 µM [inhibitor, single point]. For Cc1ccc(/C=N/NC(=O)c2ccc(-n3cccc3)cc2)o1, the Potency was “inactive”. With Cc1c(C(=O)N2CCN(C)CC2)oc2ccc(Br)cc12 the Potency was “inactive”. For Cc1oc2cc(Br)c(O)c(Br)c2c1-c1ccccc1, the Potency was active: 10 µM. With CCOc1ccc(-n2c(=O)c3sc4ccccc4c3n(Cc3ccc(F)cc3)c2=O)cc1 the Potency was “inactive”. For Cc1onc(-c2ccccc2Cl)c1C(=O)NCc1nc(-c2ccc(C(F)(F)F)cc2)no1, the Potency was inconclusive: 12.6 µM [inhibitor, single point]. For C=CCc1cc(OC)ccc1OCC(O)CN1CCN(c2ccc(OC)cc2)CC1 (stereo unspecified), the Potency was inconclusive: 14.1 µM [inhibitor, single point]. For CCc1ccc(CNC(=O)c2cnc3sc(N(CC)CC)nn3c2=O)cc1, the Potency was inconclusive: 25.1 µM [inhibitor, partial curve, poor fit]. For COc1ccc(CCNC(=O)CSc2nc(O)c(C(C)C)c(=O)[nH]2)cc1OC, the Potency was “inactive”. With C/C=N/NC(=O)c1cc(Br)ccc1O the Potency was “inactive”. In the case of O=C(N/N=C/c1ccccn1)c1ccc(Br)o1, the Potency is reported as inconclusive: 3.98 µM [inhibitor, single point]. For CCOc1ccccc1NC(=S)N1CCN(c2cccc(C)c2C)CC1, the Potency was inconclusive: 20 µM [inhibitor, single point]. In the case of CCOC(=O)C1CCCN(S(=O)(=O)c2ccc3c(c2)N(C)C(=O)CC(=O)N3C)C1 (stereo unspecified), the Potency is reported as “inactive”.
Potency means the concentration at half of the fitted maximal effect; tags describe the fitted curve by direction and shape.
